Data as given in PubChem BioAssay AID588855 (National Center for Advancing Translational Sciences (NCATS), 2011).
The campaign covered roughly 410,000 compounds. About 5,000 (1.2%) were called active. Inconclusive means that the source gave no clear call. Such entries were picked first, then a sample of the others. The call rests on the fitted dose curve; in most records, active means well fitted inhibition curve with a large enough effect; inconclusive means small, poorly fitted or top-dose-only effect; inactive means no such curve, though single readings can be large or run the other way. Potencies beside an inconclusive call are fits to weak or partial responses and may not hold up.

assay: qHTS for Inhibitors of TGF-b; settings: HepG2 CAGA-GFP TGF-b/SMAD3 reporter, GFP fluorescence, 18 h, TGF-beta stimulated, 500 pg/mL final; series mostly up to 46.1 µM; further: nearly all actives have a fitted effect of over 65% in size
Method in brief: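 GFP signal (ex488/em500-530) from TGF-beta-stimulated HEPG2 CAGA-GFP cells, 500 pg/mL final, 18 h at 37 degrees C in DMEM plus 1% FBS, normalized to unstimulated and DMSO-stimulated controls.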
Potency means the concentration at half of the fitted maximal effect; tags describe the fitted curve by direction and shape.

Row | SMILES | Potency
1 | O=C(NC(Cc1ccccc1)C(=O)N1CCCCC1)c1ccccc1 (configuration not stated) | inconclusive: 2.24 µM [inhibitor, full curve]
2 | CCOc1ccc(CCNC(=O)c2nn(C)c3c2CSc2ccc(C)cc2-3)cc1OCC | inconclusive: 35.5 µM [inhibitor, single point]
3 | CCc1nn2c(=O)c(S(=O)(=O)Nc3ccccc3)c(C)nc2s1 | inactive
4 | CNc1nc(-c2ccc3c(c2)CCN3C(=O)c2ccccc2C)cs1 | inactive
5 | Cc1nc(CSc2ccc(Cl)cc2)cc(N2CCOCC2)n1 | inactive
6 | Cc1ccc(S(=O)(=O)N2CCc3cc(C(=O)Nc4c(C)cccc4C(C)C)ccc32)cc1 | inactive
7 | CC(=O)OC1CC2(C)C(CCC2(O)C(C)=O)C2CCC3C(Cl)C(=O)CCC3(C)C12 (configuration not stated) | inactive
8 | COc1ccc(CC(=O)c2ccc(OC)c(OC)c2C)cc1OC | inconclusive: 4.47 µM [inhibitor, partial curve]
9 | COc1cccc(CC(=O)Nc2ccc3nc(Nc4cccc(C(F)(F)F)c4)cc(C)c3c2)c1 | inconclusive: 35.5 µM [inhibitor, single point]
10 | OCC1OC(n2cnc3c(N4CCCCC4)ncnc32)C(O)C1O (configuration not stated) | inconclusive: 0.398 µM [inhibitor, full curve, poor fit]
11 | O=C(CSc1nc2[nH]ncc2c(=O)[nH]1)N1CCCC1 | inconclusive: 0.708 µM [inhibitor, partial curve, poor fit]
12 | Clc1ccc(CSc2nnc(-c3ccccn3)n2Cc2cccs2)cc1Cl | active: 8.91 µM
13 | CN(CC(=O)Nc1ccc(Cl)cc1)C(=O)CCC1CCCC1 | inactive
14 | CCc1nc2ccc(C(=O)Nc3cccc(OC)c3)cn2c1N(CC)CCOC | inactive
15 | S=C(NCCSCc1c(Cl)cccc1Cl)Nc1ccccc1 | inconclusive: 15.8 µM [inhibitor, single point]
16 | COc1cccc(CNC(=O)c2cc(=O)[nH]c3ccc(S(=O)(=O)N4CCCC4)cc23)c1 | inactive
17 | COc1ccc2nc(SCC(=O)NC(C)c3ccccc3)[nH]c2c1 (configuration not stated) | inactive
18 | Cc1ccccc1NC(=O)CCn1nc(-c2ccc(Cl)cc2)c2ccccc2c1=O | inconclusive: 35.5 µM [inhibitor, partial curve, poor fit]
19 | CCCCCCc1nc(C(N)=O)c2[nH]c(=O)n(-c3ccc(OC)cc3OC)c2n1 | inconclusive: 10 µM [inhibitor, partial curve]
20 | O=[N+]([O-])c1ccc(N2CCN(S(=O)(=O)c3ccc4ccccc4c3)CC2)cc1NCc1ccco1 | inconclusive: 4.47 µM [inhibitor, full curve, poor fit]
21 | CCc1ccccc1NC(=O)CCCn1c(=O)c2cccn2c2ccccc21 | inconclusive: 35.5 µM [inhibitor, single point]
22 | COc1cccc(-n2c(SCC(N)=O)nc3c(oc4ccccc43)c2=O)c1 | inactive
23 | COc1cc(C2(c3ccc(O)c(OC)c3)C(=O)N(C)c3ccc(C)cc32)ccc1O | inactive

Row | SMILES | Potency
24 | COc1cc(C(=O)N2CCN(c3cccc(C)c3C)CC2)cc(OC)c1OC | inconclusive: 8.91 µM [inhibitor, partial curve, poor fit]
25 | COc1ccc(NC(=O)C2Cc3ccccc3CN2S(=O)(=O)c2ccccc2)cc1OC (configuration not stated) | inconclusive: 1.26 µM [inhibitor, full curve, poor fit]
26 | CCc1cccc(-n2c(=O)c3cccnc3n2CC(=O)Nc2ccc(OC)c(Cl)c2)c1 | inactive
27 | Cc1ccc(-c2cc(NC(=O)c3cccc(C)c3)on2)cc1 | inactive
28 | C[C@@H]1CCCCO[C@@H](CN(C)S(=O)(=O)c2ccccc2)[C@@H](C)CN([C@H](C)CO)C(=O)c2cc(NS(=O)(=O)c3ccc(F)cc3)ccc2O1 | inconclusive: 8.91 µM [inhibitor, partial curve, poor fit]
29 | O=C(NC(=S)Nc1ccc(NC(=O)c2cccs2)cc1)c1ccco1 | inconclusive: 4.47 µM [inhibitor, full curve, poor fit]
30 | Cc1ccc(NC(=O)CN(C)C(=O)c2cc(-c3cccs3)nn2-c2ccccc2)cc1 | inconclusive: 14.1 µM [inhibitor, single point]
31 | CN(CC(=O)Nc1c(Cl)cccc1Cl)C(=O)Cn1[nH]c(=O)c2ccccc2c1=O | inactive
32 | COC(=O)C1(CC2CC(c3cccc(Br)c3)=NO2)CCN(C(=O)OC(C)(C)C)CC1 (configuration not stated) | inconclusive: 10 µM [inhibitor, partial curve]
33 | Cc1cc(C)cc(OCC(=O)NCc2cc(C)nc3ccccc23)c1 | inconclusive: 22.4 µM [inhibitor, partial curve, poor fit]
34 | Cc1cc(OCC(=O)Nc2ccccc2N2CCOCC2)c(C(C)C)cc1Cl | inconclusive: 35.5 µM [inhibitor, single point]
35 | COc1ccc2c(c1)C(=O)C(=O)N2CCS(=O)(=O)c1ccccc1 | inconclusive: 35.5 µM [inhibitor, partial curve, poor fit]
36 | CCc1ccc2c(c1)NC(=O)C2(C)Cc1ccc(F)cc1 (configuration not stated) | inconclusive: 35.5 µM [inhibitor, single point]
37 | NC(=O)CC(NC(=O)Cc1ccc(Br)cc1)c1ccc(N2CCC(Br)CC2)c([N+](=O)[O-])c1 (configuration not stated) | inconclusive: 22.4 µM [inhibitor, single point]
38 | CC1CN(C(=O)c2cccc(S(=O)(=O)N3CCN(c4ccc(F)cc4)CC3)c2)CC(C)O1 (configuration not stated) | inactive
39 | Cn1c(C(=O)NCCCN2CCOCC2)cc2c(=O)n(C)c3ccccc3c21 | inactive
40 | Cc1ccc(NC(=O)C2CC(=O)N(c3ccc4c(c3)OCCO4)C2)cc1S(=O)(=O)N1CCCCCC1 (configuration not stated) | inconclusive: 2.82 µM [inhibitor, full curve, poor fit]
41 | Cc1cc(-c2csc3nc[nH]c(=S)c23)cc(C)c1C | inconclusive: 20 µM [inhibitor, single point]
42 | N#Cc1c(N2CCN(C(=O)c3ccccc3)CC2)nc(-c2ccccc2)c2c1CCCC2 | inconclusive: 20 µM [inhibitor, partial curve, poor fit]
43 | COc1ccc(-c2nc3c(c(SCC(=O)N4CCOCC4)n2)Cc2c(CO)cnc(C)c2O3)cc1 | inactive
44 | Cc1cc(C(=O)OCC(=O)N2CC(=O)Nc3ccccc32)c(C)n1-c1ccc(F)cc1 | inconclusive: 20 µM [inhibitor, single point]
45 | CN(C)c1nc(N)nc(CSc2nnnn2-c2cccc3ccccc23)n1 | inconclusive: 4.47 µM [inhibitor, full curve]
46 | O=C(NC1CC1)C1=C[C@@H](C2CC2)C[C@@H](OCc2ccc(CO)cc2)O1 | inactive

Row | SMILES | Potency
47 | COc1ccc(Nc2nc(N)nc(CCl)n2)cc1 | inactive
48 | O=C(N/N=C/c1cccc(OC(=O)c2ccco2)c1)c1ccc(F)cc1 | inconclusive: 2.82 µM [inhibitor, partial curve, poor fit]
49 | O=C1C=C(c2cccc3c2sc2ccccc23)C[C@@H](c2ccc(F)cc2)C1 | inactive
50 | CCOC(=O)C1(CCCc2ccccc2)CCN(C(=O)COC)CC1 | inactive
51 | Cc1ccc(NC(=O)c2nc[nH]c2C(=O)N2CCN(c3ccccc3)CC2)cc1 | inconclusive: 0.708 µM [inhibitor, partial curve, poor fit]
52 | CCc1ccccc1NC(=O)CN(C)Cc1c(O)ccc2ccccc12 | inconclusive: 17.8 µM [inhibitor, single point]
53 | CCOC(=O)c1ccc(N2N=C(C)/C(=C/C=C/c3ccco3)C2=O)cc1 | inactive
54 | O=C(NCCc1c[nH]c2ccccc12)C(=O)NCC1OCCCN1S(=O)(=O)c1ccc(F)cc1 (configuration not stated) | inconclusive: 20 µM [inhibitor, partial curve, poor fit]
55 | Oc1ccc(-c2cn3c(n2)SCC3)cc1O | inconclusive: 35.5 µM [inhibitor, single point]
56 | CC(C)C(OC(=O)CN1C(=O)c2ccccc2C1=O)C(=O)NC1CCCC1 (configuration not stated) | inactive
57 | Cc1ccc(Cl)cc1N1CCN(C(=O)c2noc3c2CCCC3)CC1 | inconclusive: 6.31 µM [inhibitor, partial curve, poor fit]
58 | O=S(=O)(N/N=C/c1ccccc1OCc1ccc(Cl)cc1)c1ccccc1 | inconclusive: 35.5 µM [inhibitor, single point]
59 | Cc1ccc(-n2nnnc2CNC(=O)C2CC(=O)N(c3ccccc3)C2)cc1C (configuration not stated) | inconclusive: 35.5 µM [inhibitor, single point]
60 | Cc1cccc(NC(=O)c2ccc(C)c(S(=O)(=O)N3CCCCC3)c2)n1 | inactive
61 | COc1cccc(CNC(=O)c2cc3c(c(-c4cccc(-c5cccc(C#N)c5)c4)n2)[C@H](CCO)N(S(=O)C(C)(C)C)C3)c1 (some centres not stated) | inconclusive: 28.2 µM [inhibitor, single point]
62 | CCCn1c(N)c(C(=O)CN(C)CC(=O)Nc2ccc(C)cc2)c(=O)[nH]c1=O | inconclusive: 20 µM [inhibitor, single point]
63 | CCOC(=O)/C=c1\s/c(=C\c2ccccc2C)c(=O)n1CC(=O)NCc1ccc2c(c1)OCO2 | inconclusive: 35.5 µM [inhibitor, single point]
64 | Cc1cccc(OCc2nnc(SCCC(=O)O)n2-c2ccccc2)c1 | inactive
65 | NC(=O)NC(=O)C(c1ccccc1)N1CCN(S(=O)(=O)c2ccc(Br)s2)CC1 (configuration not stated) | inactive
66 | COc1cc2c(cc1OC)C(c1cc(Br)ccc1F)N(C(=O)CCl)CC2 (configuration not stated) | inconclusive: 4.47 µM [inhibitor, partial curve, poor fit]
67 | COc1cc(C2C(C(=O)Nc3ccccc3C)=C(C)Nc3nc(SCc4cc(C)ccc4C)nn32)ccc1O (configuration not stated) | active: 10 µM
